From article PMC6212790
The list shows a part of the results. At the low end of the ranking the order means little.

target: T1, GST-Rok-C97-191 (UniProt O34857); assay: protein binding microarray; details: Rok is a gene silencer of Bacillus subtilis; high values mean tight binding; most listed sequences are background and not binding sites; double strand, one strand shown;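 also: rank score from −0.5 (least bound) to 0.5 (best bound)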
T1 sequence: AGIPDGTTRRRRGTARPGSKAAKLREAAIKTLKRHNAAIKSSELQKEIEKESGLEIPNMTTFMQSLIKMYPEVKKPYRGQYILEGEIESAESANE

Row | Sequence | binding signal [E-score]
1 | CTTCAGCA | -0.0401
2 | ACGTCTTG | -0.156
3 | ACCCGTAG | -0.0518
4 | AATATGCT | -0.0724
5 | CTCATTTA | -0.14
6 | CAACGTTA | 0.0959
7 | CGCGAAAA | 0.199
8 | ATGAGGGA | -0.156
9 | CTATTAGA | 0.298
10 | CCGCGGCA | -0.0832
11 | CGGTGTTC | -0.0879
12 | CCGCAGCG | -0.147
13 | ATAAGTAT | 0.215
14 | CTATTGAC | 0.0924
15 | AGACCTCC | -0.243
16 | CCGGTGTA | -0.119
17 | CAGCTCCG | -0.172
18 | ACTACGCG | 0.167
19 | CCAGAGGG | -0.325
20 | CGGATTAC | 0.11
21 | CGACCTTC | -0.0989
22 | CCGCCAGG | -0.365

Row | Sequence | binding signal [E-score]
23 | AGGGCATG | -0.18
24 | CCGAGTAG | 0.0106
25 | GCAACTAA | 0.232
26 | AGCTGGCG | -0.0516
27 | CTCTGGAA | 0.115
28 | ACAATGTC | 0.0192
29 | ATGAATTC | 0.0443
30 | AGAATAAC | 0.125
31 | GGACTACC | -0.0701
32 | ATGCTAGA | 0.249
33 | CATGTTAA | 0.188
34 | CGTATCCC | 0.0279
35 | GAGTAGGA | 0.0788
36 | CAGAGTAA | -0.0121
37 | CAAAACTA | 0.401
38 | CCGAATAG | -0.0787
39 | GCATTTGA | -0.0443
40 | GCGTCTCA | -0.174
41 | GAATCAGA | 0.132
42 | GCGTAACA | 0.0424
43 | ACTTTGTA | 0.17
44 | AAGATCAT | 0.0387

Row | Sequence | binding signal [E-score]
45 | CTTCTCAC | -0.0581
46 | CCAATAAC | -0.108
47 | CCGATCCA | -0.0563
48 | AAAATTGA | 0.179
49 | CACGTTGC | -0.135
50 | CTGCTATC | 0.0179
51 | GTCATAAA | 0.0659
52 | AATTGCCC | 0.0411
53 | AACCAGTA | 0.278
54 | ACACTGTA | 0.115
55 | CTCTCTCA | -0.0291
56 | CCGTAAGA | -0.0585
57 | AGCGTACG | 0.159
58 | GTACCAAC | 0.0505
59 | ATCGTAAT | 0.112
60 | AGGCACGA | -0.132
61 | AATGCAAC | 0.169
62 | AGCGACAT | 0.0701
63 | AAGTATTG | 0.0627
64 | AAATTGCG | 0.0795
65 | CGTCATAC | 0.0184
66 | GTATCGGA | 0.00862

Row | Sequence | binding signal [E-score]
67 | TCTGTGCA | -0.041
68 | AATTATCC | 0.176
69 | CGTTCCAA | 0.0413
70 | TCCAAACA | -0.00365
71 | AATACTAT | 0.35
72 | ATCGCATG | -0.217
73 | GTATAGAA | 0.278
74 | CCGACCAC | -0.27
75 | CTCCCTCA | -0.13
76 | CGGAATAA | 0.132
77 | CTTGGCCC | -0.244
78 | AAAAAGGT | -0.0081
79 | TCTACTCA | 0.188
80 | AGGTTCAC | -0.111
81 | AGTGTGCC | -0.185
82 | GGCTCCAA | -0.137
83 | ACGTTGCG | -0.251
84 | AAAGCCGG | -0.0749
85 | GCCCCTCC | -0.316
86 | CAGTGAAG | -0.304
87 | GTTAGAAC | 0.125
88 | CCCGCTAA | -0.106

Row | Sequence | binding signal [E-score]
89 | CAAACGGA | 0.00396
90 | CCACGCTA | 0.088
91 | CGTTTCTA | 0.369
92 | GGGCGTAC | -0.206
93 | TGACATAA | -0.123
94 | CGGGAGTA | 0.0612
95 | AATGTGAC | -0.0011
96 | CTCATTAA | -0.112
97 | GAGGTCCA | -0.00465
98 | ATCTGCAG | 0.0153
99 | ACGAAGAC | -0.0434
100 | ATGCTTAC | -0.0235
101 | ACGCGACT | -0.0126
102 | CACTTTAG | -0.00159
103 | ATCGGACG | -0.0814
104 | CTTTATGC | -0.0868
105 | TGGATAAA | 0.143
106 | CTGGGGTC | -0.232
107 | GAAAGGTA | 0.197
108 | CTATATCC | 0.17
109 | ATAATCTG | -0.0151
110 | CTCTCCTA | 0.00866
